Reference: article PMC4336329 (PLoS ONE, 2015)
Screen size: about 310,000 compounds; about 2,200 (0.71%) showed an effect of 50% or more. Effects have a minus sign here. Some of the results follow.

These compounds were tested against human ether-à-go-go-related gene (hERG) potassium channel (human, UniProt Q12809) (assay: primary screen, population patch clamp on CHO cells stably expressing hERG).
human ether-à-go-go-related gene (hERG) potassium channel, sequence (Q12809 whole entry, looked up): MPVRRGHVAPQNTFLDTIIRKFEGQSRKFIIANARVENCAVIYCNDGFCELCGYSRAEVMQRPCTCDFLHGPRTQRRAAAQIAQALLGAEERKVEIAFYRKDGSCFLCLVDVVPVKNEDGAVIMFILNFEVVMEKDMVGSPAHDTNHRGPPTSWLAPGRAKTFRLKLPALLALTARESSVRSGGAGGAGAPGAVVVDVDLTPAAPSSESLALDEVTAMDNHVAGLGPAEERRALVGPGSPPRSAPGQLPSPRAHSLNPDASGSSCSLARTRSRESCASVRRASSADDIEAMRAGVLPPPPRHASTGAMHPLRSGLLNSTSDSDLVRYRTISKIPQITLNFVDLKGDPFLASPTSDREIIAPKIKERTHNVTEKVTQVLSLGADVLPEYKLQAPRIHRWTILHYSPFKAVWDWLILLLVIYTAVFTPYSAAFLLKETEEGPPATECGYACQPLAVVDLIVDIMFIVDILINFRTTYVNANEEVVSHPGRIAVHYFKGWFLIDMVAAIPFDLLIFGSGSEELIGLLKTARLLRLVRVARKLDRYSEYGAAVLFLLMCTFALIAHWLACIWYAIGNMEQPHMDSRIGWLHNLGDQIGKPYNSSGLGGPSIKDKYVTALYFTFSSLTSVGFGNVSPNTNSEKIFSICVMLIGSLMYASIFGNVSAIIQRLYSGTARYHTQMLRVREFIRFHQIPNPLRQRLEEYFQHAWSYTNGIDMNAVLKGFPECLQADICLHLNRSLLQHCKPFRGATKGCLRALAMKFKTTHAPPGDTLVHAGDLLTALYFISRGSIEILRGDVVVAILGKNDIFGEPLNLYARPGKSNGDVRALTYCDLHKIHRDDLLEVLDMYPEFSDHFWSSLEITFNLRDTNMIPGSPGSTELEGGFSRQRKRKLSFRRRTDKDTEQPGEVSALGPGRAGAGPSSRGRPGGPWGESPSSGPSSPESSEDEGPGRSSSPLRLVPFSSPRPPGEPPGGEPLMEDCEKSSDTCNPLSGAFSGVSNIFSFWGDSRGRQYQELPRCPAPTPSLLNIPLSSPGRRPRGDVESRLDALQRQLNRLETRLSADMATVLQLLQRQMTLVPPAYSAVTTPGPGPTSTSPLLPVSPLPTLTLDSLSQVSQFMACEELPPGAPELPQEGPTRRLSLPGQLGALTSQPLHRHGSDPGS

| SMILES | hERG current change (%, negative = inhibition) at 1uM |
| --- | --- |
| CSc1ncc(C(=O)Nc2cccc(Cl)c2)c(C)n1 | 7.76% |
| O=c1[nH]nc(SCc2nc3ccccc3s2)n1C1CC1 | 12% |
| COc1ccc(CC(=O)NC(=S)Nc2cccc(C)c2)cc1 | 12.4% |
| Cc1cccc(-c2nc(=S)c3c(o2)CCCC3)c1 | 0.731% |
| O=C(NCc1ccco1)c1cc(-c2ccc(F)cc2)on1 | 10.9% |
| CCN(CC)CCCNC(=S)N1CCN(c2nc(-c3ccccc3)cs2)CC1 | 3.99% |
| CCOCCCN(C)C1CCN(C(=O)c2oc3ccccc3c2NC(=O)Cc2cccc([N+](=O)[O-])c2)CC1 | -83.8% |
| COC(=O)c1ccn(C(=O)c2ccc(Cl)cc2)n1 | 4.84% |
| COc1ccccc1NC(=O)CC(=O)c1cccc([N+](=O)[O-])c1 | 11.2% |
| CCN(CC)CCNc1nc(-c2ccc(OC)cc2)c(-c2ccc(OC)cc2)s1 | -1.17% |
| O=[N+]([O-])c1ccc(COc2cccc3cccnc23)cc1 | 13.3% |
| COc1cc(C(C)=O)ccc1OCc1nnc(-c2ccccc2Br)o1 | 1.18% |
| CCN(Cc1ccc(OC)c(F)c1)C(=O)c1cc2ccccc2o1 | 9.54% |
| COC(=O)CCCCCN1C(=O)NC(C2CC2)C(C(=O)OCc2ccccc2)=C1C (centres unmarked) | 9.64% |
| C/C(=N\NC(=O)c1cccc(S(=O)(=O)N2CCOCC2)c1)c1ccco1 | 1.87% |
| CCCC(=O)N(c1ccc2oc(C)c(C(C)=O)c2c1)S(=O)(=O)c1ccc(C)c([N+](=O)[O-])c1 | 1.26% |
| CC(=O)Nc1ccc(S(=O)(=O)NCCC(=O)OCC(=O)c2ccc(F)c(F)c2)cc1 | 12.4% |
| Cc1nc(N2CCOCC2)[nH]c(=O)c1[N+](=O)[O-] | 9.2% |
| Cc1cc(=O)n2[nH]c(N3C(=O)CCC3=O)nc2n1 | 9.01% |

| SMILES | hERG current change (%, negative = inhibition) at 1uM |
| --- | --- |
| CCCCc1c(CCC)c(=N)c2ccccc2n1C.I | 1.37% |
| Cc1ccc(N2C(=O)C(Cc3ccccc3)NC2=S)cc1 (centres unmarked) | -0.972% |
| Cc1c(NC(=O)COC(=O)c2ccccc2Cl)c(=O)n(-c2ccccc2)n1C | -0.103% |
| O=C(NNC(=O)C1CCCCC1)c1ccco1 | 27.6% |
| CC(C)(C)OC(=O)N1CCC(NC(=O)c2nc[nH]c2C(=O)N2CCc3ccccc3C2)CC1 | 3.96% |
| CC1C/C(=N\NC(=O)c2ccc([N+](=O)[O-])cc2)CC(C)(C)C1 (centres unmarked) | 0.803% |
| COc1ccc(OC)c(S(=O)(=O)NCC(c2ccco2)N2CCc3ccccc32)c1 (centres unmarked) | -5.26% |
| N=C1/C(=C\c2ccc(Br)o2)C(=O)N=C2SC(CC(=O)N3CCOCC3)=NN12 | 38.4% |
| CC(C#N)On1c(SC(C)C#N)nc2ccccc2c1=O (centres unmarked) | 0.0058% |
| O=C(Cn1cc(/C=N/NC(=O)c2cccc(C(F)(F)F)c2)c2ccccc21)Nc1ccc(F)cc1 | 13.7% |
| COc1c2ccoc2cc2oc(C)cc(=O)c12 | 8.22% |
| Cc1cccc2c(=O)c(-c3ccc4c(c3)OCO4)c(NC(=O)c3ccco3)oc12 | 9.32% |
| O=C1CC(c2ccccc2)CC(=O)N1c1ccccc1 | 2.75% |
| COc1ccc(C(=O)N2CCOC2CNC(=O)C(=O)NCCc2ccccc2OC)cc1 (centres unmarked) | 8.1% |
| CCC(CC)C(=O)NCCc1cc2ccc(C)cc2[nH]c1=O | 9.51% |
| Cn1c(=O)n(C)c2cc(NS(=O)(=O)c3ccccc3[N+](=O)[O-])ccc21 | 4.27% |
| CC(C)(CO)CNC(=O)CCc1nnc(C2(c3ccc(Cl)cc3)CCC2)o1 | 11.8% |
| O=C(Nc1nccs1)c1ccc2c(c1)C(=O)N(Cc1cccnc1)C2=O | 9.79% |
| CCCc1cc(=O)oc2cc(C)cc(OCC(=O)NC(Cc3c[nH]c4ccc(O)cc34)C(=O)O)c12 (centres unmarked) | 13.8% |

| SMILES | hERG current change (%, negative = inhibition) at 1uM |
| --- | --- |
| CC1CN(c2ccnc3cc(Cl)ccc23)CC(C)O1 (centres unmarked) | 5.7% |
| Cc1nn(CCCC(=O)O)c(C)c1[N+](=O)[O-] | 12.5% |
| COC(=O)C1=C(c2c(C)noc2C)C[C@@H]2CC[C@H]1N2C(=O)NCCNC(C)=O | 15.9% |
| CCCn1c(C2CCCN2c2nc(-c3ccc(C)cc3)cs2)nc2cc(Cl)c(N3CCCCC3)cc21 (centres unmarked) | 16.9% |
| NC(=O)CSc1nc2c(sc3ccccc32)c(=O)n1CCCN1CCOCC1 | -25% |
| Cc1ccccc1NC(=O)NC1(C(=O)N2CCN(C)CC2)CCCCC1 | 15.3% |
| Cc1nc(CCNC(=O)CC2C(=O)NCCN2Cc2ccccc2)nc2c1CCC2 (centres unmarked) | 21.7% |
| O=C(NCC1CCCO1)c1ccc2c(c1)N(Cc1ccccc1)CCS2 (centres unmarked) | 13% |
| Cn1c(Cc2ccccc2)nnc1SCC(=O)N1CCCCC1 | 7.77% |
| Cc1cccc(N2CCN(C(=O)C(Cc3ccccc3)n3cccc3)CC2)c1C (centres unmarked) | 11.8% |
| O=C1Nc2ccccc2C1(O)Cc1ccccn1 (centres unmarked) | 14% |
| O=C(CCCCCCN1C(=O)c2ccccc2C1=O)NC1CCCCC1 | 18.1% |
| C=CCn1c(O)c(C(CC)=NCc2cc(OC)cc(OC)c2)c(=O)[nH]c1=O | -5.67% |
| O=C(NCc1ccc(F)cc1)C(c1ccccc1)N(C(=O)c1csnn1)C1CC1 (centres unmarked) | 18.9% |
| CCOC(=O)C1=C(C)N(c2ccc(OC)cc2)C(=O)/C1=C\c1ccc(O)c(OCC)c1 | 13.5% |
| CCOC(=O)C1CCN(C(=O)COc2ccc(S(=O)(=O)N3CCOCC3)cc2)CC1 | 12.8% |
| CC(C(=O)O)N1C(=O)c2cccc3cccc1c23 (centres unmarked) | 12% |
| CC(=O)c1c(C)[nH]c(C(=O)Nc2ccccc2Cl)c1C | -0.772% |
